In PMC12136788:
The other results are listed elsewhere or left out.

T1: UNK ZnF1-3 (human, UniProt Q9C0B0 31-174)
T1 sequence: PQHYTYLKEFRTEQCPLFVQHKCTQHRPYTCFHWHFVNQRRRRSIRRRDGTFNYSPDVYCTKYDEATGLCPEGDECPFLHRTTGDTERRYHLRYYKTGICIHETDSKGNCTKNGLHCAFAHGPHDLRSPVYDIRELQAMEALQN

B1: chr19:47610742:47610743:-_ENSMUSG00000042694_ENSMUST00000049369|mus_mus|FALSE|FALSE (ssRNA)
RNA: GGGAGUUCUACAGUCCGACGAUCUGGCACUUGUUGGGACUCCUUCAUCUCCAGGAUAUCCUUGAUGUAGAGUUUUGCAAAGGCUAGAAACACAGGAUCCAGACCCCAAAAGAGGGGCGGGAUCUCCUCUUCCCUUGGACUGGACAACAGAGGAUUGAGCAUCA
B2: chr14:66974463:66974464:+_ENSMUSG00000022044_ENSMUST00000074523|mus_hu|mus_mus_mus_hu_False|38_58 (ssRNA)
RNA: GGGAGUUCUACAGUCCGACGAUCUUGUAGGACGACUUAUUCAGGGGAUCGGCCAGGAAGCAGGAGCAGAACAAGGACACUAGUGGGAGCUCCUUCAUCUUCUCCUUGUAGGCAGCAAGGGUCAUGUUUCUGGGAUCUGGUGGCCAACAGAGGAUUGAGCAUCA
B3: chr11:77336104:77336105:-_ENSG00000074201_ENST00000525064|hu_hu|FALSE|FALSE (ssRNA)
RNA: GGGAGUUCUACAGUCCGACGAUCUUCGCACAUUGCAGUGAACAUUGCCUCCAACGCUGAUUUAUCACUAGGCACAAAUCUAAAUUCAGUAAUAGGUUCAACAUCAUCAUCACUGUCUUCCUCUUCUUCAUCAGCAACAGGUUCCAACAGAGGAUUGAGCAUCA
B4: chr8:28385162:28385163:+_ENSG00000104290_ENST00000537916|hu_hu|FALSE|FALSE (ssRNA)
RNA: GGGAGUUCUACAGUCCGACGAUCGUGAAACAGCAAUGCUUUCUUCUCAAUAGCUUCACUACCCCACUUUGGCACAGCUGCUAAAAACCAUGUGAUGGUAAGAAUUACCCACCAUACACUGCCAGCCAUAGUAAAAAAAUAGAGCAACAGAGGAUUGAGCAUCA
B5: chr1:231488893:231488894:+_ENSG00000010072_ENST00000295050|hu_mus|motif|central (ssRNA)
RNA: GGGAGUUCUACAGUCCGACGAUCGACCAGCCGCCGUUGACUGCUCAAGCUCUGAGGAGCGCUGGCGGCUGUGGGCUGUGAGCGGCUCCGAAGGUCACCACCACUUUGUGUUUGUUCCUUGAUAGUAUCCAAAGCAGUCCUGUCCAACAGAGGAUUGAGCAUCA
B6: chr12:48362563:48362564:+_ENSG00000134291_ENST00000256686|hu_hu|hu_hu_hu_mus_False|18_28 (ssRNA)
RNA: GGGAGUUCUACAGUCCGACGAUCUCCGUCAAGCCCUUCGAUAGACCCUUGCGGGGGAAACUGUAAUCACUUUGUAUGGGGAAGGAAAAGAAACGCCAAAAACUUUCUUUCUUUCUUUUCAAAAAGCAGGCGGGAGGGGGAGGUCAACAGAGGAUUGAGCAUCA
B7: chr12:39763582:39763583:-_ENSG00000139116_ENST00000544797|hu_mus|hu_hu_hu_mus_False|8_108 (ssRNA)
RNA: GGGAGUUCUACAGUCCGACGAUCCUCUAAGAAUUGGGCAUUCACUUUGAAUUCAGGAGGGGGCAGCCCGUUUUUAAUCGCUGAGGUCUUUUUCUCAUCAAUACUCUUGAACAGGUGUCUAACAGCACGAGAAAUAAUGCCCUGCAACAGAGGAUUGAGCAUCA
B8: chr20:20006332:20006333:+_ENSG00000173418_ENST00000334982|hu_mus|FALSE|FALSE (ssRNA)
RNA: GGGAGUUCUACAGUCCGACGAUCAGGUGCUUCAGCGACGAUGAAAUACUCUGGCCAGUGCGCAAGGUACUGUAAGUAAAAAGGAAUCCCAUAAGUUUCUGUAAGUGGAUCCAAGUUAAUGUUGUUGAAGCGGAACAGGUCGUCCAACAGAGGAUUGAGCAUCA
B9: chr7:125984895:125984896:+_ENSMUSG00000030982_ENSMUST00000106553|mus_hu|motif|central (ssRNA)
RNA: GGGAGUUCUACAGUCCGACGAUCGGCCAAAGCUUAAAACAAUUUGUACAUAUGUAAAAAGAAAAGAAAAAUGAGAAACCGGAAUUGCCGUAAGAGUUCAGGGCAGCAGAGCAGAUCUUUCUGGAUUUGGCACCAGAGUCCCUGCAACAGAGGAUUGAGCAUCA
B10: 33187190_33194627_218_3pUTR_ENSMUSG00000054280_ENSMUST00000120129|mouse|control|control (ssRNA)
RNA: GGGAGUUCUACAGUCCGACGAUCGUCUUUUGCAUCAAUGGUUUACCCUUGAGAAAAGGGCUUUCUUUUCCAAAGAUUCAGAUCCUGCAGCCAGCCCCUCCAUAAGGGACAUUCAGACACUGUAUCCAAUUCUUCCAUGAGGGACAACAGAGGAUUGAGCAUCA
B11: chr15:8067299:8067300:+_ENSMUSG00000022142_ENSMUST00000163765|mus_mus|FALSE|FALSE (ssRNA)
RNA: GGGAGUUCUACAGUCCGACGAUCGAUUCUGCCAUUAUCCGUGGACGUGAUUGUUAAAAGGUACGUGUUGUCCGUGGGAAGAGAAUAUAAGGGAUCUGGAAGCAGCUGCAUGCCGCCACACAUGCUGUCAUUGAGAAUGCCAGACAACAGAGGAUUGAGCAUCA
B12: chr1:109605286:109605287:-_ENSG00000197780_ENST00000461096|hu_mus|hu_hu_hu_mus_True|1_88 (ssRNA)
RNA: GGGAGUUCUACAGUCCGACGAUCAAGUUUCAGAGUAACAUUCAGUAUACUUAAAUCAUGCAAUUAUCCUUAUUAUAAGCUAAGCAGAAUAAUAAUUUAAUACCGUAAGUGAACUACACACAAAGCCUGAACCGCGAAACUACACAACAGAGGAUUGAGCAUCA
B13: chr15:79941026:79941027:+_ENSMUSG00000022415_ENSMUST00000009727|mus_hu|FALSE|FALSE (ssRNA)
RNA: GGGAGUUCUACAGUCCGACGAUCUUUCUUGCGGUCCUUGACGCUGCUGAUCUGCGGGAAGUACACGUCCAGGGCCAGGUACAGCAGGCAGGUGAGGAAGGCGAGCACGCCCACGGCCACGCCAUAGCUGCAGGCGUUGGGGUUCAACAGAGGAUUGAGCAUCA
B14: 10438206_10439956_228_3pUTR_ENSMUSG00000027534_ENSMUST00000029047|mouse|control|control (ssRNA)
RNA: GGGAGUUCUACAGUCCGACGAUCACUUGUACACCUUUGAGUCCAAACACUUAAAGAACAACCAAUAUGCAGUUCAUUGCUUUCUUCUUAGGAAUUCACUAUCUCGGCGCGCUCCGCGACCCCACGCCGUCAGGGGAAGGAAGGCAACAGAGGAUUGAGCAUCA

What follows are binders tested against T1, UNK ZnF1-3 (assay: nsRBNS (natural sequence RNA bind-n-seq); RBNS binding buffer (assumed for nsRBNS): 25 mM Tris pH 7.5, 150 mM KCl, 3 mM MgCl2, 0.01% Triton X-100, 500 ug/ml BSA, 20 U/ml SUPERase-In, 4 C; UNK is unkempt and MSI1 is Musashi-1; names of the RNAs are library labels; protein concentration not given here; high values mean tight binding).
Work on B1 yielded a binding signal of 0.656 enrichment R.
For B2, the binding signal was 2.15 enrichment R.
B3 showed a binding signal of 1.18 enrichment R.
B4 gave a binding signal of 1.9 enrichment R.
In the case of B5, the binding signal is reported as 1.09 enrichment R.
B6 was tested, and the binding signal was 1.58 enrichment R.
Work on B7 yielded a binding signal of 1.75 enrichment R.
For B8, the binding signal was 1.09 enrichment R.
Binder B9 has a binding signal of 2.31 enrichment R.
For B10, the binding signal was 0.709 enrichment R.
Binder B11 has a binding signal of 1.04 enrichment R.
In the case of B12, the binding signal is reported as 0.609 enrichment R.
Work on B13 yielded a binding signal of 0.913 enrichment R.
For B14, the binding signal was 0.902 enrichment R.
